Measured values published in PubChem BioAssay AID504332 (National Center for Advancing Translational Sciences (NCATS), 2011).
Among all 350,000 compounds or so, about 31,000 (8.9%) were called active. Inconclusive means that the source gave no clear call. Such entries were picked first, then a sample of the others. Calls follow the shape of the dose curve; as a rule, active = well fitted inhibition curve with a large enough effect; inconclusive = small, poorly fitted or top-dose-only effect; inactive = no such curve, though single readings can be large or run the other way. Potencies of inconclusive entries are doubtful fits and often do not repeat.

biological target: Histone-lysine N-methyltransferase EHMT2 (Homo sapiens) (UniProt Q96KQ7); experiment: qHTS Assay for Inhibitors of Histone Lysine Methyltransferase G9a; conditions: G9a H3K9 monomethylation, AlphaScreen, 2 h; activity, negative = inhibition: at 59 µM (top of the series) unless noted; also: nearly all actives have a fitted effect of over 75% in size
In short: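 G9a (20 nM) was preincubated 15 min with compound, then reacted 2 h at room temperature with 500 nM biotin-H3K9 peptide and 20 µM SAM. Monomethyl-H3K9 detected by AlphaScreen using anti-H3K9me1 antibody.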
% is scaled to controls: 0 for no effect and ±100 for the full control effect; potency is read from the fitted curve at half-maximal effect; tags tell the direction and shape of the fitted curve.

Sequence of UniProt Q96KQ7 (Q96KQ7 whole entry, looked up): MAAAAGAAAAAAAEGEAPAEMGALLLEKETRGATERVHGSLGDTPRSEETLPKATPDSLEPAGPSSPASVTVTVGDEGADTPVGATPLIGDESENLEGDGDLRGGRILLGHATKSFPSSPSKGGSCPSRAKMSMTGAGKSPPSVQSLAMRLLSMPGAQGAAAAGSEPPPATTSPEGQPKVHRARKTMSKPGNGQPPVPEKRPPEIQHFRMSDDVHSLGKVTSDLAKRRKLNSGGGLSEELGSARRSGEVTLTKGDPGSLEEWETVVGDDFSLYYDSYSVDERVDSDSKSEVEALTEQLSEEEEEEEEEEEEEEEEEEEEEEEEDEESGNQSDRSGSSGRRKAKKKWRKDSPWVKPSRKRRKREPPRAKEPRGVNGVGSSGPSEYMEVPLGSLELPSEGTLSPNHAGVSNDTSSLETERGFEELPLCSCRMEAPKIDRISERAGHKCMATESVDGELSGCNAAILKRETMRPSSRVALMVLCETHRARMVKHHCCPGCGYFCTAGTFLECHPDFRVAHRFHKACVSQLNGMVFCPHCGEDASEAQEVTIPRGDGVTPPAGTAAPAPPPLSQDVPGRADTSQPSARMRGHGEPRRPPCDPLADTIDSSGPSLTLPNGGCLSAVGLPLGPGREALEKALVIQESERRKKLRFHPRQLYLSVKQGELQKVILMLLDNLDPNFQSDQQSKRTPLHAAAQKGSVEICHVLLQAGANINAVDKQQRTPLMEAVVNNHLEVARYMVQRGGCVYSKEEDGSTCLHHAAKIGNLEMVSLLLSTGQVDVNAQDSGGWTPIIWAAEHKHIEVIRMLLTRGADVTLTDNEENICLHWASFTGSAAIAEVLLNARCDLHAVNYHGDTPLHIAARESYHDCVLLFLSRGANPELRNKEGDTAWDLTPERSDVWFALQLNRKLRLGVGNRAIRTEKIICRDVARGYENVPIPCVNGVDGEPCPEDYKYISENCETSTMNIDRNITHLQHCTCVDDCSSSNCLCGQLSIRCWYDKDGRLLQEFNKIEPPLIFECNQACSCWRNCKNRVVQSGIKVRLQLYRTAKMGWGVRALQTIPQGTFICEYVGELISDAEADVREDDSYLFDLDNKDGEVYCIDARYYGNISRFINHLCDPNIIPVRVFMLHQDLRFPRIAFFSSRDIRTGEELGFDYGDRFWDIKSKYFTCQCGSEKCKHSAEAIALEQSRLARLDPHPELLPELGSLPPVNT

| Compound | Potency | activity, negative = inhibition |
| --- | --- | --- |
| CCOC(=O)c1c(NC(=S)Nc2ccc(OCC)cc2)sc2c1CCN(C)C2 | active: 50.1 µM |  |
| CCN(CC)c1ccc(NC(=O)COC(=O)C23CCC(=O)N2c2ccccc2S3)cc1 (stereo not drawn) | inconclusive: 1.58 µM [inhibitor, full curve, poor fit] |  |
| Cc1noc(C(=O)N2CCN(Cc3ccc4c(c3)OCO4)CC2)c1Cl | inconclusive: 79.4 µM [inhibitor, partial curve] |  |
| CC1(C)CC(=O)C(C=NCCN2CCN(C3CC(=O)N(c4cccc(Br)c4)C3=O)CC2)=C(O)C1 (stereo not drawn) | active: 70.8 µM |  |
| O=C(CN1CCN(Cc2ccc3c(c2)OCO3)CC1)N1CCc2[nH]c3ccccc3c2C1 | inconclusive: 89.1 µM [inhibitor, single point] |  |
| COc1ccc(CCNC(=O)CCn2c(=O)c3ccccc3n(Cc3cc(C)ccc3C)c2=O)cc1OC |  | inactive: 0.699% |
| CC1CN(C(=O)c2cc(S(=O)(=O)N3CCCCC3)ccc2Cl)CC(C)O1 (stereo not drawn) | inconclusive: 25.1 µM [inhibitor, single point] |  |
| COC(=O)c1c(NC(=O)CN2CCN(c3ccccc3Cl)CC2)sc(C)c1C | inconclusive: 31.6 µM [inhibitor, single point] |  |
| NC(=O)CSc1nnc(-c2ccc(S(=O)(=O)N3CCOCC3)cc2)n1Cc1ccccc1 | inconclusive: 0.794 µM [inhibitor, single point] |  |
| Cc1ccc(NC(=O)CN2C(=O)NC(C)(c3ccc(Cl)cc3)C2=O)cc1S(=O)(=O)N1CCOCC1 (stereo not drawn) |  | inactive: 2.93% |
| CCN(C(=O)c1ccc(S(=O)(=O)N2CCCC2)cc1)C1CCS(=O)(=O)C1 (stereo not drawn) |  | inactive: -9.34% [at 2.33 µM] |
| CCCCCc1c(O)nc(SCCN(C)C)[nH]c1=O | inconclusive: 89.1 µM [inhibitor, single point] |  |
| COCC(=O)N1CCC(Oc2ccc(C(=O)N3CCN(C)C[C@@H]3C(C)C)cc2)CC1 |  | inactive: 8.7% [at 12.7 µM] |
| CCc1nnc(NS(=O)(=O)c2ccc(N/C=C\C(=O)c3cccc(OC)c3)cc2)s1 | active: 50.1 µM |  |
| COCCCN1C(=O)/C(=C/c2ccc(CNS(=O)(=O)c3ccccc3)o2)C(C(=O)OC)=C1C | active: 28.2 µM |  |
| CCC(=O)NNC(=O)c1cc(COc2cc(Cl)cc(Cl)c2)on1 |  | inactive: -4.63% [at 102 µM] |
| COc1cccc2cc(C(=O)N3CCN(C45CC6CC(CC(C6)C4)C5)CC3)c(=O)oc12 |  | inconclusive: -58.3% [inhibitor] |
| COc1ccc(Cl)cc1S(=O)(=O)N1CCC(O)(c2ccc(Cl)cc2)CC1 |  | inactive: 39.4% |
| CCOc1ccccc1CN1CCC(N2CCOCC2)CC1 | inconclusive: 89.1 µM [inhibitor, single point] |  |
| CCN1CCN(C(=S)NC(=O)/C=C/c2cccs2)CC1 | active: 50.1 µM |  |
| COc1ccccc1CCn1c(=O)c(-c2cccc(Cl)c2)nc2cncnc21 |  | inactive: 1.78% [at 0.501 µM] |
| CCN1CCOC(=O)C1CC(=O)Nc1cc(C)ccc1OC (stereo not drawn) | active: 10 µM |  |

| Compound | Potency | activity, negative = inhibition |
| --- | --- | --- |
| O=C(CCN1CCN(CC(=O)Nc2ccccc2F)CC1)Nc1ccccc1F | inconclusive: 79.4 µM [inhibitor, partial curve] |  |
| CCOC(=O)c1cc(-c2ccc(N)cc2)sc1N | inconclusive: 1.12 µM [inhibitor, partial curve, poor fit] |  |
| CCS(=O)(=O)c1ccc2c(c1)N(S(=O)(=O)c1ccc(C)cc1)CC(C(=O)O)O2 (stereo not drawn) | inconclusive: 79.4 µM [inhibitor, partial curve, poor fit] |  |
| O=C(CSc1nnc(Cn2c(=O)sc3ccccc32)n1CCc1ccccc1)N1CCCC1 | inconclusive: 39.8 µM [inhibitor, single point] |  |
| Cc1ccc2nc(N3CCN(c4cccc(C(F)(F)F)c4)CC3)c3nnnn3c2c1 |  | inactive: 15.9% |
| CCOC(=O)c1sc(NC(=O)/C=C/c2ccc(C(C)C)cc2)c(C(=O)OCC)c1C |  | inactive: 3.39% |
| O=C(OCc1cc(Cl)ccc1OC(F)F)c1cc(S(=O)(=O)O)ccc1O | inconclusive: 50.1 µM [inhibitor, partial curve] |  |
| O=[N+]([O-])c1ccccc1NCc1c(O)ccc2ccccc12 | inconclusive: 3.16 µM [inhibitor, single point] |  |
| c1ccc(COc2ccc(-c3sc(Nc4ccccc4)n[n+]3-c3ccccc3)cc2)cc1 | active: 22.4 µM |  |
| COC(=O)c1c(NC(NC(C)=O)C(Cl)(Cl)Cl)sc2c1CCCC2 (stereo not drawn) | inconclusive: 22.4 µM [inhibitor, single point] |  |
| O=C(NCc1ccco1)c1cc2sccc2n1Cc1ccc(F)cc1 |  | inconclusive: -87% [inhibitor] |
| Cc1ccc(-n2c(Cn3nc(C(F)(F)F)cc3C)n[nH]c2=S)cc1 | inconclusive: 2 µM [inhibitor, partial curve, poor fit] |  |
| Cc1ccc(C)c(NC(=O)CC2NCCNC2=O)c1 (stereo not drawn) |  | inactive: -1.09% |
| Cc1cc(NS(=O)(=O)c2ccc(NC(=O)c3ccccc3C)cc2)nc(C)n1 |  | inactive: 2.07% |
| COc1cccc(NC(=O)CSc2nnc3scc(-c4ccc(Cl)cc4)n23)c1 | inconclusive: 5.62 µM [inhibitor, partial curve, poor fit] |  |
| COc1ccc(N(C(=O)c2ccc(OC)c(OC)c2)S(=O)(=O)c2ccc(Cl)cc2)cc1 | inconclusive: 10 µM [inhibitor, full curve, poor fit] |  |
| CC(=O)N1N=C(c2ccc(C)o2)CC1c1ccc(F)cc1 (stereo not drawn) | inconclusive: 25.1 µM [inhibitor, single point] |  |
| Cc1cc(Cl)ccc1NC(=O)CSc1n[nH]c(N)n1 | inconclusive: 0.316 µM [inhibitor, partial curve, poor fit] |  |
| CN(c1ncc(C(F)(F)F)cc1Cl)N1C(=O)c2cccc([N+](=O)[O-])c2C1=O |  | inconclusive: -51.1% [inhibitor] [at 102 µM] |
| CCc1ccc(NCc2cc3cc4c(cc3n(CC(=O)Nc3cccc(OC)c3)c2=O)OCO4)cc1 | inconclusive: 8.91 µM [inhibitor, partial curve] |  |
| Nc1ccc(Oc2cc(N)cc(Oc3ccccc3)c2)cc1 | inconclusive: 39.8 µM [inhibitor, partial curve, poor fit] |  |
